Experimental data as given in the supplement of paper PMC3334620.
Whole data set: some 33,000 sequences, median “E-score (-0.5 to 0.5)” near -0.053, cut for the highest 2% near 0.37. Some of the results follow.

Target: Hap1 (UniProt P0CE41)
Assay: PBM E-score (8-mer binding enrichment) (E-score (-0.5 to 0.5)); higher = stronger / more preferred TF binding; most listed sequences are background and not binding sites
Conditions: protein concentration: 200 nM; construct: GST-DNA-binding domain
Method: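 Universal 'all 10-mer' protein binding microarrays (Agilent AMADID 015681) probed with GST-tagged S. cerevisiae TFs (full-length or DBD) made by in vitro transcription/translation (PURExpress), about 100-200 nM. Bound TF was detected with fluorescent anti-GST. Each ungapped 8-mer (which stands for itself and its reverse complement) is scored by the PBM enrichment score (E-score), a modified Wilcoxon-Mann-Whitney statistic from -0.5 to +0.5, computed with the Universal PBM Analysis Suite. Scale: above 0.35 generally sequence-specific binding.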

UniProt P0CE41, sequence (P0CE41 whole entry): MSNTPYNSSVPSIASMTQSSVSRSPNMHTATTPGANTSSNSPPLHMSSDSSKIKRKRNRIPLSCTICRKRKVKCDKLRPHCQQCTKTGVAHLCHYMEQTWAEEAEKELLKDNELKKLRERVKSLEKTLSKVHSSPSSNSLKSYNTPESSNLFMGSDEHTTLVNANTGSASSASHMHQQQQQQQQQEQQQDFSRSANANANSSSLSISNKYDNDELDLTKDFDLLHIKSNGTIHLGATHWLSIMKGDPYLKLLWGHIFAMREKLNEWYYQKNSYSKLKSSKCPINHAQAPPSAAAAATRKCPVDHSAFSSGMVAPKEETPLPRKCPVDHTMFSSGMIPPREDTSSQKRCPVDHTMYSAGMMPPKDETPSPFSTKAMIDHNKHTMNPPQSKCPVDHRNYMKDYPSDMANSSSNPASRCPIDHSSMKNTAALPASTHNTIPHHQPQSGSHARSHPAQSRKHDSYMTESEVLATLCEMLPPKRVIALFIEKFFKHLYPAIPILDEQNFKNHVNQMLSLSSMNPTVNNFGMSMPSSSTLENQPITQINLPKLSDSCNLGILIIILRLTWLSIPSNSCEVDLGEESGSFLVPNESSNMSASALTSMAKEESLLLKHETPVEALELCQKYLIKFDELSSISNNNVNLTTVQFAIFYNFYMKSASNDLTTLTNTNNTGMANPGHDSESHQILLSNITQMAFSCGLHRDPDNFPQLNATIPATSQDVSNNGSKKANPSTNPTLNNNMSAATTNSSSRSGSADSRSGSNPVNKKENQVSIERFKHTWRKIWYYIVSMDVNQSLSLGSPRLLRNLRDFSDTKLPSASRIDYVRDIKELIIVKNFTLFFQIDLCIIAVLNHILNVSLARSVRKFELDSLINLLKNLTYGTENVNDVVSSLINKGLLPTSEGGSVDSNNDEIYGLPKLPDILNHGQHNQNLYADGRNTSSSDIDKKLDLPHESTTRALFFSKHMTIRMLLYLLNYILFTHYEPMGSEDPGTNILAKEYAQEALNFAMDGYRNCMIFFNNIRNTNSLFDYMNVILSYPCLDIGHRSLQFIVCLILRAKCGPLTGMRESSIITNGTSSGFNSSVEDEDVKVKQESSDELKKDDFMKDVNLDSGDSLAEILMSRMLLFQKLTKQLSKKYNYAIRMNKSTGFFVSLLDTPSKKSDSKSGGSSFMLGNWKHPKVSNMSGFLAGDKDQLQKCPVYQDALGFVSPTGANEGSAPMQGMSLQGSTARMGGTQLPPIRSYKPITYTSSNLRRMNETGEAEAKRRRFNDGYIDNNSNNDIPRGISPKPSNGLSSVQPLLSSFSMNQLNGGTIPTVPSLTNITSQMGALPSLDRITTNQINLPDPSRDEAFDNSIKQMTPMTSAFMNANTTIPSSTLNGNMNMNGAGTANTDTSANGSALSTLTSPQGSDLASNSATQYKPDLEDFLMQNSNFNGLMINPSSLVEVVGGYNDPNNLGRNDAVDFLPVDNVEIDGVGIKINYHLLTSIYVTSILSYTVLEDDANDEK

Sequence | PBM E-score
CCCTGTAC | -0.167
AATGGACA | -0.242
GCGGAGAA | 0.349
TGTTATAA | 0.00991
ATTCACGG | 0.152
AGCTAGTG | -0.146
GTTAAGAA | 0.0147
CCTCGTGA | -0.165
CGGTGAGC | 0.0638
ATAGTGTC | -0.0299
CGCAAGTA | 0.0146
AACCGAAC | 0.165
CCGCTCGA | 0.112
CCTGTCTA | -0.161
AGTTCACG | 0.0527
CCTGGCGC | 0.128
CCGACAAA | 0.304
CCGAGAAG | 0.293
CAACTCCC | 0.0886
CGCTTCGC | 0.16
AAGTTCAC | 0.0265
ACGTCCCG | 0.093

Sequence | PBM E-score
GATAGGCC | 0.178
GATTACCC | 0.166
CAAAATCG | -0.0102
GACCCGAA | 0.301
CCTAAGGC | -0.131
CAATCATG | -0.274
ACCATGCA | -0.132
GATTCGCA | 0.132
CAATCATC | 0.00362
GCGAGACA | -0.199
AGTTCTGG | -0.189
ACCGCCAT | -0.0161
CTTCGCCA | 0.015
AAGCCCAC | -0.123
GTACTGAA | -0.0794
ACAATGGC | -0.082
CTGGCCGA | 0.25
CTGGCAGC | -0.103
AGCATTTA | -0.0725
ACGCGTCC | 0.0749
AGACTTGC | -0.225
CGGATCCC | 0.28

Sequence | PBM E-score
AGAAAGGG | -0.14
GGCTAATA | 0.0843
CAAGCGCG | 0.0608
AGGAGGTG | -0.304
ACAAGCTG | -0.184
CGAGATCC | 0.148
AAGCAGTA | -0.262
CACCTAAA | -0.214
CATGGTCA | -0.0446
GCGTAGCC | -0.135
ATCGAGAA | -0.132
AGGCGCAT | 0.0322
AGTCACGG | 0.181
CTAATTCC | 0.349
CACACGCC | 0.105
GTCTTCTA | -0.11
CGCTTTGC | 0.0331
GGGACCTA | 0.116
CGCACACG | 0.0946
AGAGTCTA | -0.318
ATTTAAAA | 0.0376
GTCAAGAA | -0.178

Sequence | PBM E-score
ATTGTGAC | -0.261
GCAGTTTA | -0.0464
CTGAGGGA | -0.236
GTACGCAA | -0.186
CCCGGCAC | 0.119
CCCAAGTA | -0.137
CTAGCAGA | -0.242
AATCAAGG | 0.132
AGCACCGC | 0.174
AGCTGAAG | -0.245
TCATTCAA | -0.108
GTGTCGGA | 0.325
GGAGTGAA | 0.0859
TAGAAGCA | -0.336
AGGTGTTG | -0.064
AACCATAA | -0.124
ACCGCACC | 0.264
CCCAAACC | 0.124
CAATAATA | 0.0248
AAGTGGAA | -0.122
CAGCCTTA | -0.0219
CGAACCTC | 0.0197

Sequence | PBM E-score
ACTGGGCC | 0.0867
AACGGTGC | -0.0225
AAAGCGAC | 0.0734
ATAAAAAG | 0.0576
GGGAATAA | 0.396
CACGGTGC | -0.171
CCATCGCC | 0.197
ACGGGGGA | 0.163
ACGACCCG | 0.141
CCTATACA | -0.276
CGTCCCCA | -0.0642
GGATTTGA | 0.1
CTCTGCAC | -0.136
AAAGCACT | -0.0566
AATACGCC | 0.105
CCGCTATC | 0.31
GACGGTTA | 0.108
GAATAATA | 0.105
ACAAGGAT | -0.249
CTACGTAC | -0.106
ACGGAACC | 0.284
CTGGTGAA | -0.285
